Data taken from patent publication US20210147549A1 (MOMENTA PHARMACEUTICALS, published 2021).

Target: T1, Recombinant, Histidine tagged, PD-L1 (9049-B7 R&D Systems) (UniProt Q9NZQ7 fragment)
T1 construct: Bought protein; not shown: histidine tag
Test: SPR, His-tagged PD-L1 captured by anti-6xHis antibody, antibody or construct as analyte, 1:1 Langmuir model

T1 sequence (Q9NZQ7 19-239 limits assumed): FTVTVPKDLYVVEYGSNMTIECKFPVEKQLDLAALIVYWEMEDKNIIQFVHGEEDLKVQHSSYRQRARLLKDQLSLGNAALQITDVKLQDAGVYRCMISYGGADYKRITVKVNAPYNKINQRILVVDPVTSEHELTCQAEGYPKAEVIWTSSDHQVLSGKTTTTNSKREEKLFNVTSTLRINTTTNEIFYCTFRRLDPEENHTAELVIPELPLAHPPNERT

| Kd [pM] | Binder |
| --- | --- |
| 27 | Fc-antigen binding domain construct 8 (PD-L1) (Fc fusion, also called S3W-AA-AVE; Construct 8 (anti-PD-L1)) [human IgG1 Fc with D399K K409D (EU numbers) left out][about 250 residues left out] heavy: EVQLLESGGGLVQPGGSLRLSCAASGFTFSSYIMMWVRQAPGKGLEWVSSIYPSGGITFYADTVKGRFTISRDNSKNTLYLQMNSLRAEDTAVYYCARIKLGTVTTVDYWGQGTLVTVSSASTKGPSVFPLAPSSKSTSGGTAALGCLVKDYFPEPVTVSWNSGALTSGVHTFPAVLQSSGLYSLSSVVTVPSSSLGTQTYICNVNHKPSNTKVDKKV[human IgG1 Fc with changes left out] light: QSALTQPASVSGSPGQSITISCTGTSSDVGGYNYVSWYQQHPGKAPKLMIYDVSNRPSGVSNRFSGSKSGNTASLTISGLQAEDEADYYCSSYTSSSTRVFGTGTKVTVLGQPKANPTVTLFPPSSEELQANKATLVCLISDFYPGAVTVAWKADGSPVKAGVETTKPSKQSNNKYAASSYLSLTPEQWKSHRSYSCQVTHEGSTVEKTVAPTECS |
| 34 | Fc-antigen binding domain construct 9 (PD-L1) (Fc fusion, also called S3A-AA-AVE; Construct 9 (anti-PD-L1)) heavy 1: EVQLLESGGGLVQPGGSLRLSCAASGFTFSSYIMMWVRQAPGKGLEWVSSIYPSGGITFYADTVKGRFTISRDNSKNTLYLQMNSLRAEDTAVYYCARIKLGTVTTVDYWGQGTLVTVSS[human IgG1 constant region with D399K K409D (EU numbers) left out][about 250 residues left out] heavy 2: EVQLLESGGGLVQPGGSLRLSCAASGFTFSSYIMMWVRQAPGKGLEWVSSIYPSGGITFYADTVKGRFTISRDNSKNTLYLQMNSLRAEDTAVYYCARIKLGTVTTVDYWGQGTLVTVSSASTKGPSVFPLAPSSKSTSGGTAALGCLVKDYFPEPVTVSWNSGALTSGVHTFPAVLQSSGLYSLSSVVTVPSSSLGTQTYICNVNHKPSNTKVDKKV[human IgG1 Fc with changes left out] light: QSALTQPASVSGSPGQSITISCTGTSSDVGGYNYVSWYQQHPGKAPKLMIYDVSNRPSGVSNRFSGSKSGNTASLTISGLQAEDEADYYCSSYTSSSTRVFGTGTKVTVLGQPKANPTVTLFPPSSEELQANKATLVCLISDFYPGAVTVAWKADGSPVKAGVETTKPSKQSNNKYAASSYLSLTPEQWKSHRSYSCQVTHEGSTVEKTVAPTECS |
